Experimental data reported in the antibiotic and cytotoxicity screens of Wong et al. (2023).
This is one part of the list.

Columns and labels:
HSkMC = human skeletal muscle cells; assay: cytotoxicity call (relative viability < 0.9); settings: 10 µM
HepG2 = assay: cytotoxicity call (relative viability < 0.9); settings: 10 µM
S. aureus RN4220 = assay: growth inhibition call (relative growth <= 0.2); settings: 50 µM

| Compound | cytotoxicity call (HSkMC) | cytotoxicity call (HepG2) | growth inhibition call (S. aureus RN4220) |
| --- | --- | --- | --- |
| Cc1ccnc2c1NC(=O)c1cccnc1N2C1CC1 | inactive | inactive | inactive |
| OC[C@@H](O)[C@@H](O)[C@H](O)[C@H](O)CO | inactive | inactive | inactive |
| COc1ccccc1S(=O)(=O)N[C@@H]1CC[C@@H](CCNC(=O)C2CCOCC2)O[C@@H]1CO | inactive | inactive | inactive |
| COc1ccc(S(=O)(=O)N(C)C[C@@H]2Oc3ccc(NC(=O)NC(C)C)cc3C(=O)N([C@H](C)CO)C[C@@H]2C)cc1 | inactive | inactive | inactive |
| C[C@@H]1CN([C@H](C)CO)C(=O)CCCn2cc(nn2)CO[C@@H]1CN(C)C(=O)Nc1ccc(N2CCN(C)CC2)cc1 | inactive | inactive | inactive |
| C[C@H](CO)N1C[C@H](C)[C@@H](CN(C)Cc2ccc3c(c2)OCO3)Oc2c(NC(=O)C3CC3)cccc2C1=O | inactive | inactive | inactive |
| COc1ccc(NC(=O)N(C)C[C@H]2OCCCC[C@@H](C)Oc3ccc(NC(=O)C4CCCCC4)cc3C(=O)N([C@H](C)CO)C[C@H]2C)cc1 | inactive | inactive | inactive |
| C[C@@H]1CN([C@H](C)CO)C(=O)Cc2cc(NC(=O)c3ccncc3)ccc2O[C@@H]1CN(C)Cc1ccc(-c2ccccc2)cc1 | active | active | inactive |
| C[C@@H]1CCCCO[C@@H](CN(C)Cc2ccc(C(F)(F)F)cc2)[C@@H](C)CN([C@H](C)CO)C(=O)c2cc(NC(=O)c3ccncc3)ccc2O1 | inactive | inactive | inactive |
| CC(C)NC(=O)N(C)C[C@H]1Oc2c(NC(=O)Nc3ccc4c(c3)OCO4)cccc2C(=O)N([C@H](C)CO)C[C@@H]1C | inactive | inactive | inactive |
| O=C(N[C@@H](c1ccc(-c2ccccc2)cc1)c1cnccn1)C1CCN(CCOc2ccc(F)cc2)CC1 | inactive | active | active |
| COc1ccc(NC(=O)N(C)C[C@H]2OCCCC[C@H](C)Oc3ccc(NC(=O)c4ccccc4)cc3C(=O)N([C@@H](C)CO)C[C@@H]2C)cc1 | inactive | inactive | inactive |
| COc1cc(/C=C/c2cc(O)cc(O[C@@H]3O[C@H](CO)[C@@H](O)[C@H](O)[C@H]3O)c2)ccc1O[C@@H]1O[C@H](CO)[C@@H](O)[C@H](O)[C@H]1O | inactive | inactive | inactive |
| O=C(O)C1CCNCC1 | inactive | inactive | inactive |
| Cc1ccc(S(=O)(=O)Nc2ccc3c(c2)C(=O)N([C@@H](C)CO)C[C@@H](C)[C@@H](CN(C)CC2CCCCC2)OCCCC[C@H](C)O3)cc1 | inactive | inactive | inactive |
| C[C@@H]1CN([C@@H](C)CO)C(=O)c2cc(NC(=O)c3ccccc3)ccc2O[C@@H](C)CCCCO[C@H]1CN(C)S(=O)(=O)c1ccc(Cl)cc1 | inactive | active | inactive |
| C[C@H](CO)N1C[C@H](C)[C@H](CN(C)C(=O)C2CCCCC2)Oc2cc(C#C[C@@H](C)O)ccc2S1(=O)=O | inactive | inactive | inactive |
| Cc1nnsc1C(=O)NCC1(CO)CC1 | inactive | inactive | inactive |
| Nc1nnc(-c2cccc(Cl)c2Cl)c(N)n1 | inactive | inactive | inactive |
| C[C@H](CO)N1C[C@H](C)[C@H](CN(C)S(=O)(=O)c2ccc(F)cc2)Oc2ccc(NC(=O)Cn3cnnn3)cc2C1=O | inactive | inactive | inactive |
| COCC#Cc1cnc2c(c1)C(=O)N([C@@H](C)CO)C[C@@H](C)[C@@H](CN(C)S(=O)(=O)c1cn(C)cn1)O2 | inactive | inactive | inactive |
| C[C@@H]1CCCCO[C@@H](CN(C)C(=O)Nc2cccc3ccccc23)[C@H](C)CN([C@H](C)CO)C(=O)c2cc(N(C)C)ccc2O1 | inactive | inactive | inactive |
| Cc1nccn1CCN | inactive | inactive | inactive |
| C[C@H]1CCCCO[C@H](CN(C)C(=O)c2ccccc2)[C@@H](C)CN([C@@H](C)CO)C(=O)c2cc(NS(=O)(=O)c3ccccc3)ccc2O1 | inactive | inactive | inactive |
| CCN1C[C@]23CN(C(=O)c4ccn[nH]4)C[C@@H](C[C@H]2S1(=O)=O)O3 | inactive | inactive | inactive |
| C[C@@H]1CN([C@@H](C)CO)C(=O)c2cc(NC(=O)Cc3ccccc3)ccc2O[C@@H](C)CCCCO[C@H]1CN(C)S(=O)(=O)c1cccs1 | inactive | inactive | inactive |
| O=C(C[C@H]1C[C@@H]2c3cc(NC(=O)c4ccc5c(c4)OCO5)ccc3O[C@@H]2[C@H](CO)O1)NCc1cccnc1 | inactive | inactive | inactive |
| Cc1ccc(S(=O)(=O)Nc2ccc3c(c2)C(=O)N([C@@H](C)CO)C[C@@H](C)[C@H](CN(C)C(=O)Nc2cccc4ccccc24)O3)cc1 | inactive | inactive | inactive |
| Cc1ccc(O)c(CO)n1 | inactive | inactive | inactive |
| COc1ccc(S(=O)(=O)Nc2ccc3c(c2)C(=O)N([C@H](C)CO)C[C@H](C)[C@@H](CN(C)C(=O)Nc2cccc4ccccc24)O3)cc1 | inactive | inactive | inactive |
